According to PMC4336329 (PLoS ONE, 2015):
In all, about 310,000 compounds went through this assay and about 14,000 (4.5%) showed an effect of 50% or more. Effects have a minus sign here. Some of the results follow.

Biological target: human ether-à-go-go-related gene (hERG) potassium channel (human, UniProt Q12809)
Test: primary screen, population patch clamp on CHO cells stably expressing hERG
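Also: peak tail current of the secondary pulse compared with the same well before compound.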

Chain of human ether-à-go-go-related gene (hERG) potassium channel (Q12809 whole entry, looked up): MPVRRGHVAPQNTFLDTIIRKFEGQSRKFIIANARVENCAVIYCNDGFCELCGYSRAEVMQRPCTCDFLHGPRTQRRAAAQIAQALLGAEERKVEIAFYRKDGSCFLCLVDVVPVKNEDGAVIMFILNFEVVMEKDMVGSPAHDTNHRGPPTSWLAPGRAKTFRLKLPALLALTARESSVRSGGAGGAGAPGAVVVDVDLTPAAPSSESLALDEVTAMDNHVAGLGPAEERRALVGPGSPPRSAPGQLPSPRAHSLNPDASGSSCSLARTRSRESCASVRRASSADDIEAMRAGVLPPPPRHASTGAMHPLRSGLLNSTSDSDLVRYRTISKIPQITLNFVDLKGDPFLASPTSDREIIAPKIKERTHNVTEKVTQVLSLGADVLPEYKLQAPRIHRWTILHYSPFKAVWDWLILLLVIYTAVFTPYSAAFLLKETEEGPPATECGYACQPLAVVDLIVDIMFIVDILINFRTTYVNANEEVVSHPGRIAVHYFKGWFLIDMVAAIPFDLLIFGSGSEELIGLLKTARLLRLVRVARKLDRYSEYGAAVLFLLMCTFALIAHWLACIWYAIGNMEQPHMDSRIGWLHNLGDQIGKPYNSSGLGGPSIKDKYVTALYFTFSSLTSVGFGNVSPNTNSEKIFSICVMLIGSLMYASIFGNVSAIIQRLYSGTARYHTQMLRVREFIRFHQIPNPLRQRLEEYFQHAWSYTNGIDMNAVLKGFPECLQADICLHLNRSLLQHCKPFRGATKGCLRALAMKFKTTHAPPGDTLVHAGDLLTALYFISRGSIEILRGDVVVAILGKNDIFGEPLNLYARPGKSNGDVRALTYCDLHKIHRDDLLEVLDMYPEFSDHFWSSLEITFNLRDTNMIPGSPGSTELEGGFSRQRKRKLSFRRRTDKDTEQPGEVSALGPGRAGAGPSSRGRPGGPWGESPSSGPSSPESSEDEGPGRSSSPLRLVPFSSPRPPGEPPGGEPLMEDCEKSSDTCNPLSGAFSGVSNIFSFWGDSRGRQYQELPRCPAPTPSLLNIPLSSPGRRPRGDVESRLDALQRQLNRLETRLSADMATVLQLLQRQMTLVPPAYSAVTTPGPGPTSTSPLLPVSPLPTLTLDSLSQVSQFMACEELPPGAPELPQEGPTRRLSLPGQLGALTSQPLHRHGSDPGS

Row | SMILES | hERG current change (%, negative = inhibition) at 10uM [%]
1 | CCN(CC)S(=O)(=O)c1cccc(NC(=O)COC(=O)c2n[nH]c(=O)c3ccccc23)c1 | -2.07
2 | COC(=O)C1=NNC(C(=O)c2ccco2)C1c1ccccc1 (stereo not shown) | 1.6
3 | COc1ccc(CC(=O)N(C)CC(=O)Nc2ccccc2SC)cc1 | 8.56
4 | O=C1CN=C(c2cccc(Br)c2)c2cc(Br)ccc2N1 | -44.5
5 | Cc1ccccc1NC(=O)C1c2ccccc2Oc2ccccc21 | 29
6 | Cc1cc(NC(=O)/C(C#N)=C/c2ccco2)n(-c2ccccc2)n1 | -3.27
7 | CCN(c1ccc(NC(=O)CN2C(=O)NC3(CCOc4ccccc43)C2=O)cc1)C(C)C (stereo not shown) | -6.12
8 | C=CCN(CC=C)C(=O)Cn1cnc([N+](=O)[O-])n1 | -0.773
9 | CN(c1ncnc(N)c1[N+](=O)[O-])C1CCCCC1 | -3.82
10 | O=C(NC(Cc1ccccc1)C(=O)O)c1ccccc1 (stereo not shown) | 8.76
11 | Cc1ccnc(SC2CC(=O)N(c3ccc([N+](=O)[O-])cc3)C2=O)n1 (stereo not shown) | -26.8
12 | Cc1ccn2c(=O)nc(SCC(=O)Nc3ccc4c(c3)OCO4)nc2c1 | 0.0348
13 | CCOc1ccc(CN(C)C(=O)c2ccc3ccccc3n2)cc1 | -18.2
14 | COCc1cc(N2CCOCC2)nc(SCc2ccc(Cl)cc2)n1 | -11.7
15 | Cn1c(SCC(=O)Nc2ccc3c(c2)OCCO3)nnc1C(F)(F)F | 7.6
16 | CCCC(=Nc1ccccc1)C1=C(O)C(C(=O)OC)C(C)(C)CC1=O (stereo not shown) | -3.62
17 | CC1(C)C2CCC1(CS(=O)(=O)N1CCN(c3ccc(F)cc3)CC1)C(=O)C2 (stereo not shown) | 8.44
18 | Nc1cccc(C(=O)Nc2ccc3nc(-c4cccnc4)[nH]c3c2)c1 | -4.09
19 | CCCOc1ccc(C2/C(=C(\O)c3c(C)[nH]c(C(=O)OC)c3C)C(=O)C(=O)N2CCN(C)C)cc1 (stereo not shown) | 16.6
20 | COc1ccc(-n2nc3c(c2NC(=O)Cc2cccc(C)c2)CS(=O)C3)cc1 (stereo not shown) | -15.5
21 | Cc1cc(C)cc(NC(=O)COC(=O)CCc2ccc(S(=O)(=O)N3CCOCC3)cc2)c1 | -3.69
22 | CSc1ccccc1C(=O)Nc1c(C)cccc1C | 5.35

Row | SMILES | hERG current change (%, negative = inhibition) at 10uM [%]
23 | O=C(O)c1cccc(NC(=O)C2CC(=O)N(Cc3ccccc3)C2)c1 (stereo not shown) | 23.5
24 | Cc1cccc(NC(=O)C2Cc3ccccc3O/C2=N\O)c1 (stereo not shown) | -1.41
25 | Cc1ccc(C2(c3noc(CN(C)Cc4ccccn4)n3)CCCC2)cc1 | 7.29
26 | O=C(CSc1nnnn1C1CCCCC1)Nc1cccc(NC(=O)c2ccco2)c1 | -27.8
27 | CC1C(=O)N2CCCc3cc(NC(=O)C(=O)NCc4ccccn4)cc1c32 (stereo not shown) | 2.99
28 | Cn1c(SC2=CS(=O)(=O)c3ccccc32)nc2ccccc21 | 4.24
29 | Cc1cccc(NC(=O)CCCN2C(=S)NC(C)(C)CC2C)c1C (stereo not shown) | 9.52
30 | O=C(NCc1ccco1)C(Cc1ccccc1)N1C(=O)c2ccccc2C1=O (stereo not shown) | -2.88
31 | COC(=O)C1=C(C)NC(=O)/C1=C\c1cc(C)n(-c2ccc(F)cc2)c1C | 3.52
32 | CC(O)(CS(=O)(=O)Cc1ccccc1)C(=O)Nc1cccc(C(F)(F)F)c1 (stereo not shown) | 1.72
33 | CN(C(=O)COc1ccc(C(C)(C)C)cc1)C1CCS(=O)(=O)C1 (stereo not shown) | -17.1
34 | COc1ccccc1C(=O)NCc1ccc2c(c1)OCO2 | -3.43
35 | CC(C)C(NC(=O)CC12CC3CC(CC(C3)C1)C2)C(=O)O (stereo not shown) | 10.6
36 | O=C(CC1Sc2ccccc2NC1=O)NCc1cccc(Cl)c1 (stereo not shown) | 16.9
37 | COc1cc2c(cc1OC)CN(S(=O)(=O)c1ccccc1F)CC2 | 1.69
38 | O=C(c1ccc([N+](=O)[O-])cc1)N1CCN(C2=NS(=O)(=O)c3ccccc32)CC1 | -46.2
39 | Cc1cc(C(=O)NCC(C)C)c2ccccc2n1 | 8.14
40 | CS(=O)(=O)c1ccc(NS(=O)(=O)c2ccc3ccccc3c2)cc1 | 14.2
41 | CC1CCN(S(=O)(=O)c2ccc3c(c2)CCN3C(=O)CCC(=O)O)CC1 | 8.01
42 | Clc1ccc(C2CC(c3cccs3)n3ncnc3N2)c(Cl)c1 (stereo not shown) | 4.91
43 | COc1ccc(OC)c(-c2csc(NC(=O)Cc3ccccc3F)n2)c1 | -2.42
44 | NS(=O)(=O)c1cccc(NC(=S)NCc2ccccc2)c1 | 19.7

Row | SMILES | hERG current change (%, negative = inhibition) at 10uM [%]
45 | CCCSc1nc2c(c(=O)n1-c1ccc(OCC)cc1)SCC2 | 11
46 | CCOc1ccc(/C=C2\CCC(C3CCCC3)C2=O)cc1OC (stereo not shown) | 16.2
47 | Cc1ccccc1-n1nc(C)c2cc(C(=O)NC3CC3)sc21 | -5.95
48 | O=C(CN1CCOCC1)N/N=C/c1ccc(C(=O)O)cc1 | 7.17
49 | CCOC(=O)N1CCC(NC(=O)c2cc(S(=O)(=O)N3CCCCC3)ccc2F)CC1 | 13.1
50 | CC(=O)Nc1ccc(S(=O)(=O)NC2=C(N3CCN(Cc4ccccc4)CC3)C(=O)c3ccccc3C2=O)cc1 | -6.37
51 | Cc1ccc(S(=O)(=O)Cc2ccc(C(=O)N3CCC(C(N)=O)CC3)o2)cc1 | 30.7
52 | Fc1ccc(CNCCc2ccccc2F)cc1 | -2.59
53 | Cc1ccc(N2C(=S)NC3c4cc(Cl)ccc4OC2(C)C3C(=O)N(C)C)cc1 (stereo not shown) | 18.3
54 | CN(C)c1nc(N)nc(-c2cccnc2)n1 | -15.3
55 | O=C(COC(=O)c1c[nH]c(=O)[nH]c1=O)Nc1ccccc1Br | 5.69
56 | O=C(Nc1ccccc1N1CCOCC1)C1CCN(S(=O)(=O)c2ccc(F)cc2)CC1 | 6.56
57 | Cc1ccccc1NC(=O)c1cc(S(=O)(=O)N2CCOCC2)cs1 | 9.42
58 | N=c1c(S(=O)(=O)c2ccc(Cl)cc2)cc2c(=O)n3ccccc3nc2n1CCN1CCOCC1 | -46.4
59 | O=C(O)c1occc1CSc1ccccc1 | 29
60 | O=C(Nc1cccnc1Cl)c1cc(-c2cccc(O)c2)on1 | -8.42
61 | COC(=O)C1CCN(C(=O)c2cc(OC)c(OC)c(OC)c2)CC1 | 19.3
62 | COc1ccc(S(=O)(=O)N2CCOCC2)cc1NC(=O)COc1ncnc2ccccc12 | 6.62
63 | O=C(Cc1ncc(C(F)(F)F)cc1Cl)N1CCN(c2cccc(Cl)c2)CC1 | -60.6
64 | O=C(Nc1cccc(C(F)(F)F)c1)c1cc[n+]([O-])cc1 | 21.2
65 | O=C(c1cc(-c2ccc(O)cc2)on1)N1CCCCCC1 | -19.3
66 | Cc1cc(/C=C2\C(=N)N3N=CSC3=NC2=O)c(C)n1Cc1ccccc1 | -2.17

Row | SMILES | hERG current change (%, negative = inhibition) at 10uM [%]
67 | COCCCn1nnnc1SCC(=O)Nc1nc2ccccc2s1 | 6.93
68 | COc1cc(CN2CCCCCC2)cc(Br)c1O | 6.72
69 | CC1CCN(C(=O)COC(=O)/C=C/c2ccc(Br)o2)CC1 | -4.03
70 | CCOC(=O)c1c(NC(=O)CN2C(=O)NC3(CCCCCC3)C2=O)sc(C)c1-c1ccc(C)cc1 | 4.24
71 | O=C1OCC(c2ccccc2)=C1c1ccc(S(=O)(=O)N2CCOCC2)s1 | -9.86
72 | CCOC(=O)c1c(-c2ccccc2)oc2ccc(OCC(=O)O)cc12 | 4.02
73 | O=C(COc1ccc(Br)cc1)NCCNC(=O)c1cccnc1 | -14.8
74 | CC1CC(N(C(=O)c2ccco2)c2ccccc2)c2ccccc2N1C(=O)c1ccco1 (stereo not shown) | -22.2
75 | Cc1ccc(N2CCN(S(=O)(=O)c3nnc(NC(=O)c4ccccc4)s3)CC2)cc1 | 22
76 | O=C1c2cc(S(=O)(=O)NCCO)ccc2-c2ccc(S(=O)(=O)NCCO)cc21 | -1.1
77 | Cc1cc(=O)oc2c1c(C)nn2-c1ccc(Cl)cc1 | 19.8
78 | COCc1c(C(=O)N2CCN(Cc3ccc(C#N)cc3)CC2)oc2ccccc12 | -70.2
79 | CC1(C)Cc2noc(N)c2C(C)(C)N1OC(=O)c1cccs1 | 6.58
80 | COc1cc(C(=O)NNC(=O)CN2C(=O)NC3(CCCC3)C2=O)cc(OC)c1OC | 3.38
81 | CCC(C(=O)NCc1ccco1)N(C(=O)CNS(=O)(=O)c1ccccc1)c1ccccc1C (stereo not shown) | -7.72
82 | O=C(c1cccs1)N1CCN=C1SCc1ccc(Cl)cc1 | 6.12
83 | CN(C)C(=O)/C(=C/c1ccc(-c2cccc([N+](=O)[O-])c2)o1)NC(=O)c1ccccc1 | -21.3
84 | O=C(COC(=O)Cc1ccccc1[N+](=O)[O-])NCc1ccc(F)cc1 | -8.6
85 | COc1ccc(CNC(=O)CN(C(=O)c2csnn2)c2ccc(F)cc2)cc1 | -5.15
86 | CCCOc1ccc(Cl)cc1CNc1ccccc1 | 1.58
87 | COc1ccc(CN(Cc2cccn2C)C(=O)c2cc3cc(OC)ccc3[nH]2)cc1 | -8.11
88 | O=C(CCc1ccccc1)NC(=S)Nc1ccccc1[N+](=O)[O-] | -19.7
